The supplement of paper PMC4967469
IC50 is the fitted dose that halves viability relative to control wells, and lower means more sensitive; where the fit passes the top or lowest dose, that dose stands as a limit. The AUC spans the tested range (256-fold, ending at the top dose) of the same fit; the more sensitive the line, the further below 1. For part of these data: An inferred top dose was derived from the fitted curves, not read from the paper.

How the values were obtained:
Test in all cases: Viability of human cancer cell lines after 72 h of drug (GDSC screen)
ZG-10 = compound: CN(C)C/C=C/C(=O)Nc1ccc(C(=O)Nc2cccc(Nc3nccc(-c4cccnc4)n3)c2)cc1 [ZG-10]; conditions: top dose 10 µM; top dose inferred
Description: (§1)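 Human cancer cell lines in 384-well plates, medium with 10% serum, drug for 72 h over a 256-fold dose range (nine 2-fold or five 4-fold steps up to the top dose). Adherent lines were fixed and stained with the nucleic acid dye Syto60, suspension lines read with resazurin; signal relative to control wells, capped at 0 and 100%. One two-parameter sigmoid per drug and line, fitted in a mixed model over all curves with the slope shared within a line.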

Temozolomide = compound: Cn1nnc2c(C(N)=O)ncn2c1=O [Temozolomide]; conditions: top dose 30 µM
Description: as §1

IPA-3 = compound: Oc1ccc2ccccc2c1SSc1c(O)ccc2ccccc12 [IPA-3]; conditions: top dose 32 µM; top dose inferred
Description: as §1

XL-880 = compound: COc1cc2c(Oc3ccc(NC(=O)C4(C(=O)Nc5ccc(F)cc5)CC4)cc3F)ccnc2cc1OCCCN1CCOCC1 [XL-880]; conditions: top dose 5.12 µM; top dose inferred
Description: as §1

CI-1040 = compound: O=C(NOCC1CC1)c1ccc(F)c(F)c1Nc1ccc(I)cc1Cl [CI-1040]; conditions: top dose 10 µM; top dose inferred
Description: as §1

Tubastatin A = compound: CN1CCc2c(c3ccccc3n2Cc2ccc(C(=O)NO)cc2)C1 [Tubastatin A]; conditions: top dose 20 µM
Description: as §1

| Cell Line | AUC (ZG-10) | IC50 (ZG-10) | AUC (Temozolomide) | IC50 (Temozolomide) | AUC (IPA-3) | IC50 (IPA-3) | AUC (XL-880) | IC50 (XL-880) | AUC (CI-1040) | IC50 (CI-1040) | AUC (Tubastatin A) | IC50 (Tubastatin A) |
| --- | --- | --- | --- | --- | --- | --- | --- | --- | --- | --- | --- | --- |
| RVH-421 (melanoma, adherent) | 0.777 | 5.64 µM | 0.949 | > 30 µM | 0.955 | > 32 µM | 0.63 | 0.832 µM | 0.547 | 0.882 µM | 0.922 | > 20 µM |
| SK-MES-1 (lung squamous cell carcinoma, adherent) | 0.882 | > 10 µM | 0.981 | > 30 µM | 0.75 | 11.3 µM | 0.775 | 2.21 µM | 0.802 | 5.45 µM | 0.948 | > 20 µM |
| H2595 (mesothelioma, adherent) | 0.891 | > 10 µM | 0.978 | > 30 µM | 0.981 | > 32 µM | 0.887 | > 5.12 µM | 0.924 | > 10 µM | 0.918 | > 20 µM |
| HCC1428 (breast, adherent) | 0.844 | 8.15 µM | 0.986 | > 30 µM | 0.987 | > 32 µM | 0.986 | > 5.12 µM | 0.937 | > 10 µM | 0.973 | > 20 µM |
| CaR-1 (large intestine, adherent) | 0.755 | 5.06 µM | 0.971 | > 30 µM | 0.978 | > 32 µM | 0.754 | 2.58 µM | 0.89 | > 10 µM | 0.976 | > 20 µM |
| H513 (mesothelioma, semi-adherent) | 0.972 | > 10 µM | 0.984 | > 30 µM | 0.984 | > 32 µM | 0.983 | > 5.12 µM | 0.935 | > 10 µM | 0.986 | > 20 µM |
| HCC1419 (breast, adherent) | 0.907 | > 10 µM | 0.98 | > 30 µM | 0.904 | > 32 µM | 0.979 | > 5.12 µM | 0.905 | > 10 µM | 0.952 | > 20 µM |
| CAL-62 (thyroid, adherent) | 0.581 | 1.03 µM | 0.975 | > 30 µM | 0.767 | 11.3 µM | 0.826 | 2.89 µM | 0.608 | 1.22 µM | 0.948 | > 20 µM |
| OVISE (ovary, adherent) | 0.856 | > 10 µM | 0.967 | > 30 µM | 0.964 | > 32 µM | 0.682 | 1.23 µM | 0.734 | 3.7 µM | 0.71 | 6.01 µM |
| SW626 (ovary, adherent) | 0.739 | 3.47 µM | 0.981 | > 30 µM | 0.793 | 17.7 µM | 0.674 | 1.08 µM | 0.749 | 3.78 µM | 0.949 | > 20 µM |
| IHH-4 (thyroid, semi-adherent) | 0.83 | 4.65 µM | 0.992 | > 30 µM | 0.538 | 2.49 µM | 0.697 | 1 µM | 0.626 | 1.29 µM | 0.984 | > 20 µM |
| HARA (lung squamous cell carcinoma, adherent) | 0.787 | 5.15 µM | 0.981 | > 30 µM | 0.968 | > 32 µM | 0.68 | 1.11 µM | 0.848 | 9.39 µM | 0.933 | > 20 µM |
| RC-K8 (B-cell lymphoma, suspension) | 0.912 | > 10 µM | 0.99 | > 30 µM | 0.943 | > 32 µM | 0.872 | 3.8 µM | 0.989 | > 10 µM | 0.99 | > 20 µM |
| SW1710 (bladder, adherent) | 0.655 | 1.7 µM | 0.978 | > 30 µM | 0.561 | 2.96 µM | 0.61 | 0.65 µM | 0.822 | 6.09 µM | 0.972 | > 20 µM |
| PL4 (pancreas, adherent) | 0.668 | 1.87 µM | 0.986 | > 30 µM | 0.982 | > 32 µM | 0.598 | 0.601 µM | 0.857 | 8.56 µM | 0.987 | > 20 µM |
| CHP-212 (neuroblastoma, adherent) | 0.861 | 7.44 µM | 0.958 | > 30 µM | 0.738 | 8.98 µM | 0.983 | > 5.12 µM | 0.124 | 0.0455 µM | 0.896 | > 20 µM |
| 22RV1 (prostate, adherent) | 0.842 | 9.68 µM | 0.979 | > 30 µM | 0.869 | > 32 µM | 0.689 | 1.24 µM | 0.948 | > 10 µM | 0.916 | > 20 µM |
| SCC-4 (head and neck, adherent) | 0.833 | 8.17 µM | 0.981 | > 30 µM | 0.975 | > 32 µM | 0.901 | > 5.12 µM | 0.859 | > 10 µM | 0.924 | > 20 µM |
